According to the supplement of paper PMC10126150:
Values marked as one replicate rest on one cluster of the flow cell; about a third of the high ones do not repeat.

System: ATP
Assay: switch fluorescence ratio, 500 uM ATP over buffer (Cy3 cluster intensity, sum of 5 cycles each) (fold (ratio)); higher = stronger signal-on switching upon ATP binding; sequences stand for … in TCGTCGGCAGCGTCAGATGTGTATAAGAGACAGTTTTTTTTTTTTTTTTTTTTTTTTT…TC
Conditions: aptamer strand: ATP DNA aptamer (quencher-CACCTGGGGGAGTATTGCGGAGGAAGG + anchor), 100 nM annealed; ATP concentration: 500 uM; one replicate
Procedure, shortened: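 Values give the fluorescence ratio for each switch-domain sequence, averaged from per-cluster ratios of summed target-cycle to summed buffer-cycle Cy3 intensity. The Cy3-labelled switching-strand clusters sat on a modified Illumina MiSeq flow-cell, were annealed to 100 nM quencher-labelled ATP aptamer, and were imaged in selection buffer, then after 15 min with 500 uM ATP at 22 °C. Five cycles ran with NaOH stripping and re-annealing between them, and clusters outside 100-1000 RFU were excluded.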
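Further: ATP exposure 15 min at 22 °C before imaging.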

ATAGTCTCAG showed a switch fluorescence ratio of 1.05.
AGCTGAAAAT gave a switch fluorescence ratio of 1.02.
Work on TAGACGGCGT yielded a switch fluorescence ratio of 0.999.
Sequence CGGAATACAG has a switch fluorescence ratio of 1.62.
Work on GGATAGTCCG yielded a switch fluorescence ratio of 1.03.
Work on CACATCAAAT yielded a switch fluorescence ratio of 1.02.
Sequence TATGAACAGT has a switch fluorescence ratio of 0.978.
AAGGGCGACT was tested, and the switch fluorescence ratio was 0.99.
GATGCTTTAA showed a switch fluorescence ratio of 0.935.
Work on TGACTAAGCA yielded a switch fluorescence ratio of 1.03.
TGGTATAGGA showed a switch fluorescence ratio of 0.944.
For CTCTTGCTGC, the switch fluorescence ratio was 1.32.
CCCAATCGTC showed a switch fluorescence ratio of 1.18.
ATAAGCGGGT was tested, and the switch fluorescence ratio was 0.943.
Work on CACCGCGCCG yielded a switch fluorescence ratio of 1.13.
TGCCGTGGGG showed a switch fluorescence ratio of 0.972.
With GTCAGCATCT the switch fluorescence ratio was 1.07.
With GGATAGGCAT the switch fluorescence ratio was 1.
In the case of CAAGGGCTGG, the switch fluorescence ratio is reported as 1.
Work on ATTTCCTACG yielded a switch fluorescence ratio of 2.71.
In the case of GGCCTAGGTT, the switch fluorescence ratio is reported as 1.04.
GCGGTTAAGA gave a switch fluorescence ratio of 0.991.
AATCTGTTTC was tested, and the switch fluorescence ratio was 0.966.
In the case of CTATGCGTCA, the switch fluorescence ratio is reported as 1.
CGAGATTGAA showed a switch fluorescence ratio of 0.975.
Work on CCCCTTCAGG yielded a switch fluorescence ratio of 1.41.
CTTCCAGGGG gave a switch fluorescence ratio of 3.61.
GGGGGAGTT gave a switch fluorescence ratio of 0.973.
With CGGTCCAGAG the switch fluorescence ratio was 1.03.
ACCATTGCAT gave a switch fluorescence ratio of 1.03.
TTGGATAAGG showed a switch fluorescence ratio of 0.959.
With AGCCAAAAGA the switch fluorescence ratio was 1.03.
Work on AATAGGTGAA yielded a switch fluorescence ratio of 1.02.
AATAGGATGT showed a switch fluorescence ratio of 0.959.
For CCAACGGAGG, the switch fluorescence ratio was 1.01.
TTGCATTAGC was tested, and the switch fluorescence ratio was 1.09.
For GGACCCCGGT, the switch fluorescence ratio was 0.983.
AAACTGACGT was tested, and the switch fluorescence ratio was 1.35.
GCCTATGTGT gave a switch fluorescence ratio of 1.03.
AATTCAATC gave a switch fluorescence ratio of 1.02.
CACGGTGCGT showed a switch fluorescence ratio of 1.03.
With GCTACCAGCA the switch fluorescence ratio was 1.02.
For TTTGTGTAA, the switch fluorescence ratio was 0.972.
With TTATGGATGG the switch fluorescence ratio was 0.951.
For CGCGCAGTC, the switch fluorescence ratio was 1.7.
In the case of GAAGCATGGA, the switch fluorescence ratio is reported as 1.2.
For CGAGATAGGG, the switch fluorescence ratio was 1.01.
In the case of AATAGAAGAA, the switch fluorescence ratio is reported as 0.988.
TTTTTTCAGT showed a switch fluorescence ratio of 1.01.
CAATCTGGGT was tested, and the switch fluorescence ratio was 1.
GTGAAGCGGA gave a switch fluorescence ratio of 0.996.
TTGAATCAGA showed a switch fluorescence ratio of 1.07.
For CTGACCCTCG, the switch fluorescence ratio was 1.03.
AGAAACATCG gave a switch fluorescence ratio of 0.994.
With GATTCACGCT the switch fluorescence ratio was 1.
Work on ACCCATAAGC yielded a switch fluorescence ratio of 1.05.
CATGGATGAC was tested, and the switch fluorescence ratio was 0.96.
Work on TGCGCTAAGC yielded a switch fluorescence ratio of 0.973.
Work on ATATATTGCA yielded a switch fluorescence ratio of 1.01.
Work on GCTCGAATTT yielded a switch fluorescence ratio of 1.09.
Work on TCGGGCGCAC yielded a switch fluorescence ratio of 1.12.
In the case of TGCCCATTGG, the switch fluorescence ratio is reported as 0.966.
TCATGTGATC showed a switch fluorescence ratio of 1.01.
For CGAGGGTTGT, the switch fluorescence ratio was 0.961.
ACGTGTCAGA showed a switch fluorescence ratio of 1.08.
In the case of ATTATTATTT, the switch fluorescence ratio is reported as 0.958.
In the case of ACAGGCCTCC, the switch fluorescence ratio is reported as 1.1.
Work on CGCCACGGGG yielded a switch fluorescence ratio of 1.04.
AATTGACAGA showed a switch fluorescence ratio of 0.999.
Sequence GGGGAGAAAA has a switch fluorescence ratio of 0.986.
TTCGGTCATT showed a switch fluorescence ratio of 0.981.
Work on AATCTACACC yielded a switch fluorescence ratio of 1.16.
For ATTGCGTCTT, the switch fluorescence ratio was 1.04.
TCGCCGTTGC was tested, and the switch fluorescence ratio was 1.15.
In the case of CTTCGTTTTT, the switch fluorescence ratio is reported as 1.04.
Work on GGACCAAAGC yielded a switch fluorescence ratio of 1.02.
GCTGTGGTGA showed a switch fluorescence ratio of 0.99.
Work on CGTATGTGTG yielded a switch fluorescence ratio of 0.975.
For TATATGGGCC, the switch fluorescence ratio was 0.989.
For TTGGTTCCCA, the switch fluorescence ratio was 1.01.
With CCATGCTC the switch fluorescence ratio was 1.14.
With ACCTGAACG the switch fluorescence ratio was 1.28.
In the case of GTGGCTTAA, the switch fluorescence ratio is reported as 1.
Sequence GACTGTGTAA has a switch fluorescence ratio of 0.997.
ATCTTTAGAA gave a switch fluorescence ratio of 1.03.
Sequence AACAATTTGG has a switch fluorescence ratio of 0.979.
TAACGTTTGA showed a switch fluorescence ratio of 1.03.
TTTTTATGTA was tested, and the switch fluorescence ratio was 1.06.
TTAAGTTAAG was tested, and the switch fluorescence ratio was 0.997.
For CCTCTCAGGA, the switch fluorescence ratio was 1.1.
GTTTAAGCTT showed a switch fluorescence ratio of 1.02.
In the case of AATGATGACC, the switch fluorescence ratio is reported as 0.956.
AACGGCGCAC was tested, and the switch fluorescence ratio was 1.25.
For TAATTGCT, the switch fluorescence ratio was 0.969.
GCTCGGTGCG gave a switch fluorescence ratio of 0.922.
GCCTGAGTTG gave a switch fluorescence ratio of 1.
TTTTATTAG gave a switch fluorescence ratio of 0.998.
Sequence TACAGTACGA has a switch fluorescence ratio of 1.36.
AATCCCCCGG was tested, and the switch fluorescence ratio was 4.69.
Work on TTTAAATGGA yielded a switch fluorescence ratio of 0.989.
For GACTTGGGG, the switch fluorescence ratio was 0.996.
GAATTGCTCG gave a switch fluorescence ratio of 0.995.
GTGCTTGAGT showed a switch fluorescence ratio of 0.997.
In the case of CAGCAACGGC, the switch fluorescence ratio is reported as 1.23.
Work on CTTCTTAACG yielded a switch fluorescence ratio of 1.01.
With GGTATACCGG the switch fluorescence ratio was 1.
For ACGGCTCCAA, the switch fluorescence ratio was 1.02.
CCAGGCCTGG gave a switch fluorescence ratio of 0.961.
GAGGCTCATA was tested, and the switch fluorescence ratio was 1.02.
GGTTGAGTAG was tested, and the switch fluorescence ratio was 0.987.
Sequence TATATAGACG has a switch fluorescence ratio of 0.957.
GTATTTTAGT was tested, and the switch fluorescence ratio was 1.03.
TCGATAAGTA showed a switch fluorescence ratio of 0.971.
Work on TTTTACCGAC yielded a switch fluorescence ratio of 1.06.
TAACACATAT gave a switch fluorescence ratio of 1.07.
Work on TTGTCCTTTT yielded a switch fluorescence ratio of 0.987.
CGCATCACAG gave a switch fluorescence ratio of 1.14.
In the case of TGGGAAGCTG, the switch fluorescence ratio is reported as 0.952.
In the case of GCTATTCTAA, the switch fluorescence ratio is reported as 1.
For ACAAGGGTCT, the switch fluorescence ratio was 1.02.
Sequence CGGGCTTTTA has a switch fluorescence ratio of 0.988.
In the case of CGGGTTTAGC, the switch fluorescence ratio is reported as 0.975.
For TTTACGGCCT, the switch fluorescence ratio was 1.04.
With TAATCCCGCG the switch fluorescence ratio was 1.04.
ATGTGGAAGC gave a switch fluorescence ratio of 1.01.
Work on AAGATCTGAG yielded a switch fluorescence ratio of 1.
For CGAATTAATC, the switch fluorescence ratio was 1.
For CTGATTTGAT, the switch fluorescence ratio was 0.962.
GGCCGTCATG showed a switch fluorescence ratio of 1.01.
In the case of ATGCTAACTT, the switch fluorescence ratio is reported as 1.06.
Sequence CTGCCACTAT has a switch fluorescence ratio of 1.22.
TGTAGTGCAT was tested, and the switch fluorescence ratio was 1.01.
In the case of TGCAGTGGC, the switch fluorescence ratio is reported as 1.61.
ATGCTTAAGG was tested, and the switch fluorescence ratio was 0.98.
GATACTAC gave a switch fluorescence ratio of 1.25.
Sequence TTCAATCGGG has a switch fluorescence ratio of 1.03.
Sequence ACAAATTGCT has a switch fluorescence ratio of 1.02.
With GCAGCGGCGA the switch fluorescence ratio was 1.06.
In the case of TTGTGCCTGC, the switch fluorescence ratio is reported as 1.02.
Work on ACAGTCCACC yielded a switch fluorescence ratio of 1.11.
In the case of ACATGTAACA, the switch fluorescence ratio is reported as 1.01.
Work on ACGTAACTC yielded a switch fluorescence ratio of 1.35.
ATACGTTCT gave a switch fluorescence ratio of 0.997.
CGCCTATGTT gave a switch fluorescence ratio of 0.94.
AATTGCAGGC showed a switch fluorescence ratio of 1.1.
In the case of AAATTAAATG, the switch fluorescence ratio is reported as 1.02.
AGTTGTTGTC gave a switch fluorescence ratio of 0.963.
For TGACAGATAA, the switch fluorescence ratio was 1.03.
For TACGTGCG, the switch fluorescence ratio was 1.04.
TAGATGGCCC showed a switch fluorescence ratio of 0.991.
CTGTAGAGTC showed a switch fluorescence ratio of 1.04.
For TACGCATTA, the switch fluorescence ratio was 2.04.
Sequence TGGGGCGATA has a switch fluorescence ratio of 1.02.
With TAAGCGATTG the switch fluorescence ratio was 0.991.
Sequence TCATCAAGT has a switch fluorescence ratio of 0.985.
Work on CGAGAACTCG yielded a switch fluorescence ratio of 0.94.
GTGCTCCCGG gave a switch fluorescence ratio of 1.19.
ATCGTAAAAC was tested, and the switch fluorescence ratio was 1.21.
For ATTACGATCG, the switch fluorescence ratio was 1.05.
TCCATTGATC showed a switch fluorescence ratio of 0.991.
In the case of GAATAATCTT, the switch fluorescence ratio is reported as 1.
Work on ATAGGATTCC yielded a switch fluorescence ratio of 0.992.
With CGTGGTTAGG the switch fluorescence ratio was 1.
In the case of GGGGAGGGTT, the switch fluorescence ratio is reported as 1.05.
GAATATTCCG showed a switch fluorescence ratio of 1.03.
For AGTCTCTTGT, the switch fluorescence ratio was 1.02.
TACACCTTGC gave a switch fluorescence ratio of 2.27.
CCGCATTGTA showed a switch fluorescence ratio of 2.72.
With TATAGTGATT the switch fluorescence ratio was 1.04.
AGCCGCGACC was tested, and the switch fluorescence ratio was 2.19.
Work on AGCGCAGGTG yielded a switch fluorescence ratio of 4.27.
CTTTCGAAA gave a switch fluorescence ratio of 1.06.
Sequence GCTACTAGTT has a switch fluorescence ratio of 1.
ACACAGATCA gave a switch fluorescence ratio of 1.03.
GGTCCCTCGG showed a switch fluorescence ratio of 1.01.
In the case of AAAGGGGATT, the switch fluorescence ratio is reported as 1.01.
For CAGGGGCACC, the switch fluorescence ratio was 1.
AGACAAGGAG was tested, and the switch fluorescence ratio was 0.929.
Work on GATTGACAAC yielded a switch fluorescence ratio of 0.977.
With CTGGCGAAAC the switch fluorescence ratio was 1.68.
In the case of TGACGGAGAG, the switch fluorescence ratio is reported as 1.07.
ACAGTCCCCT showed a switch fluorescence ratio of 1.04.
TGCCTTAGGC gave a switch fluorescence ratio of 1.01.
CCACGCACGG gave a switch fluorescence ratio of 1.87.
Work on TATCTCGATC yielded a switch fluorescence ratio of 1.02.
GTGTTTCCAT gave a switch fluorescence ratio of 0.999.
AGTGTGTGAC was tested, and the switch fluorescence ratio was 0.962.
In the case of GCGGACCTGC, the switch fluorescence ratio is reported as 1.03.
Sequence TTGCTCCTTC has a switch fluorescence ratio of 1.09.
GGATAACTGT was tested, and the switch fluorescence ratio was 0.954.
ATAAGTCCCC showed a switch fluorescence ratio of 1.09.
Sequence GGCTATTTGC has a switch fluorescence ratio of 1.01.
Work on GCGGTCCGCA yielded a switch fluorescence ratio of 1.07.
CTTAGAGCCC gave a switch fluorescence ratio of 0.998.
Sequence ATCCATTTCT has a switch fluorescence ratio of 0.986.
Work on TCAGTGTCCT yielded a switch fluorescence ratio of 1.01.
With CATACTAAGG the switch fluorescence ratio was 1.05.
CACATGGACC showed a switch fluorescence ratio of 1.06.
GTGGAGAC gave a switch fluorescence ratio of 1.08.
With AAGGTCAGCC the switch fluorescence ratio was 0.979.
For CGACCTGTTT, the switch fluorescence ratio was 0.997.
